Sequences with one replicate were seen in a single cluster, so their values are uncertain.
Test system: ATP
Experiment: switch fluorescence ratio, 500 uM ATP over buffer (Cy3 cluster intensity, sum of 5 cycles each) (fold (ratio)); higher = stronger signal-on switching upon ATP binding; sequences stand for … in TCGTCGGCAGCGTCAGATGTGTATAAGAGACAGTTTTTTTTTTTTTTTTTTTTTTTTT…TC
Details: aptamer strand: ATP DNA aptamer (quencher-CACCTGGGGGAGTATTGCGGAGGAAGG + anchor), 100 nM annealed; ATP concentration: 500 uM; one replicate
Summary of the method: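 Cy3-labelled switching-strand clusters on a modified Illumina MiSeq flow-cell were annealed to 100 nM quencher-labelled ATP aptamer and imaged first in selection buffer, then after 15 min with 500 uM ATP at 22 °C. NaOH stripping and re-annealing separated each of five buffer/ATP cycles, and clusters outside 100-1000 RFU were excluded. The fluorescence ratio sums target-cycle Cy3 intensity over buffer-cycle Cy3 intensity per cluster and averages it per switch-domain sequence.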
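Note: ATP exposure 15 min at 22 °C before imaging.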

Row | Sequence | switch fluorescence ratio
1 | TTACGCGGTC | 1.57
2 | ACGATAGCTC | 1.34
3 | ACTAGGGCAT | 1.03
4 | TACATTTAAC | 1.08
5 | TGATGCGGAA | 1.07
6 | ACTAGCACGG | 1.33
7 | ACTAGGTACC | 1.06
8 | ATTAGAGACC | 1.03
9 | TCTGTGTGCC | 1.02
10 | GCCAATAAGT | 0.988
11 | AGACATCGA | 0.98
12 | GCACCTAGCC | 1.03
13 | TACGAGAGGG | 1
14 | CATAGGGGT | 1
15 | AGATTAAATT | 0.998
16 | GGGGGCTAGA | 0.962
17 | ACCGCGCCGC | 1.75
18 | TCATAACGTT | 0.956
19 | GGTGTAGTGC | 0.97
20 | CGGGTCAGTA | 1.01
21 | CATGGGCAAC | 1.09
22 | GCTAGGAGGA | 0.972
23 | AGTCATCTTT | 0.958
24 | GGCGTTTTAT | 0.993
25 | GTATGTCAAC | 0.998
26 | GTATTTGTGT | 0.993

Row | Sequence | switch fluorescence ratio
27 | CGTGAGGCCC | 0.984
28 | GAAAGCCTGA | 1.05
29 | TCGACCCCGT | 1.1
30 | TACATTCCGG | 1.21
31 | CCCTGTTCCA | 0.981
32 | AGGGTGCCTA | 1.01
33 | GTTGTCGTCT | 1.08
34 | CCTTCCTCG | 2.19
35 | TCCACGAGGA | 1
36 | AGACATTGTA | 0.999
37 | CATTCACTTT | 1.03
38 | ATAAGTTCAT | 0.986
39 | CAAAGAACAG | 1
40 | GTGCGTTAGC | 1.03
41 | CCGGACTTTC | 2.82
42 | AAACTATGCT | 1.04
43 | GTAGTAGGTA | 0.996
44 | CATAAGGCGG | 1.02
45 | GACAGCTGGA | 1.06
46 | ATGGGAACCC | 1
47 | ACGTGGGGAC | 1.03
48 | TGACCCAGTC | 1.01
49 | GTCGTACGGT | 0.976
50 | GGGCCCAACG | 0.991
51 | TGGATCGCAC | 2.83
52 | TCGAGTAGAG | 1.02

Row | Sequence | switch fluorescence ratio
53 | TTGGGGCCCC | 1.02
54 | GTAACGTAGC | 1.08
55 | ACTCTTACGA | 1.15
56 | ATTTCCCTCG | 1.05
57 | TTAGTTTTC | 0.962
58 | GTAGGCAGCT | 0.991
59 | GTTGGTTCTA | 1
60 | GTGAGCCGAT | 0.971
61 | AAAATTCGAG | 1.02
62 | AGGGCTTACG | 1.02
63 | GATTTACTTT | 0.964
64 | AACCCTGGGC | 0.982
65 | GTGCTTGGGA | 0.964
66 | GTTGCGGTT | 0.953
67 | TACGAAACCG | 1.17
68 | GATGTGGTAT | 1.01
69 | AGATCGGAAC | 1.03
70 | GTGACCAT | 1.02
71 | TATCCCCGA | 0.994
72 | AAGTTATGA | 0.994
73 | GCACTGATTT | 1.01
74 | CCGTGCTATG | 1.37
75 | CCCATGCGCC | 1.31
76 | CATCGGGGCC | 1.04
77 | CTTGGCGTTC | 1.04
78 | GTGGTAAGGA | 0.944

Row | Sequence | switch fluorescence ratio
79 | CGCTTAATTC | 1.82
80 | TACCCGGTAT | 0.998
81 | TAGCGTTGCT | 0.967
82 | CGTTTTACTA | 1.05
83 | GGCTATTGTA | 1
84 | GCAGTTCCCG | 1.05
85 | ATACGTTTTT | 1
86 | ATAAGCCATG | 1.03
87 | AACGGCAAAC | 3.7
88 | GTCTTACCTA | 1.07
89 | GCTTGTCCTT | 0.985
90 | GCCTCGTAAT | 1.78
91 | GCCAGATACT | 1.08
92 | TGGCTGAGGT | 1.09
93 | CCGAGGAAAT | 1.19
94 | GCCTTCCTTA | 2.08
95 | TAAGATTCTT | 0.999
96 | GGCCAAAATG | 1.04
97 | ATAGGACTCT | 1.03
98 | GAGACTAATT | 1.05
99 | TTGAAGCTG | 0.98
100 | CAGCTTTGTT | 0.967
101 | GTTCCTTGTT | 1
102 | TGACTTATAA | 1.03
103 | CGAAGTTTTC | 1.16
104 | ACCACGGGA | 1.05

Row | Sequence | switch fluorescence ratio
105 | ATCAGGTGC | 1.59
106 | AAGCGAAGAG | 1
107 | TCTTTAGGGC | 1.01
108 | TGGGTTGTT | 0.971
109 | CCTATTCTTC | 0.983
110 | TTAGGACGGG | 0.953
111 | TGCGCCCGT | 0.993
112 | TTGGACCCGA | 0.994
113 | TCGCTATCTT | 1.01
114 | AGCGGAGTAC | 1.1
115 | CGACTCCAGA | 1.2
116 | TATTTACAG | 0.993
117 | GCTAGCTGAC | 1.25
118 | TGGATGACTG | 1.53
119 | CGTTCAGCGT | 0.994
120 | TCGATGTACC | 1.13
121 | AGCGCATGGA | 1.04
122 | GATCTGCGGG | 0.95
123 | CTTTAACCTT | 1.59
124 | CTAACGTGG | 0.972
125 | TTTTCGTTT | 0.986
126 | ATATTGTG | 0.997
127 | CGATTATCAA | 0.993
128 | ACATTTAAGG | 0.998
129 | ATGTATAGC | 0.984
130 | TTATGGTTGA | 0.996

Row | Sequence | switch fluorescence ratio
131 | TGGTTATCCC | 1.47
132 | TTAAATCGCC | 0.983
133 | TAAGTACACT | 1.26
134 | CTGTGCTTTT | 0.997
135 | AGATGATAAC | 1.01
136 | GATGAGTATT | 1
137 | TCAGTCTATA | 1.04
138 | CGTTTGCGGC | 1.05
139 | ACGCGCAATC | 3.92
140 | CACGGTATTG | 1.15
141 | AAGTGTATG | 0.964
142 | TGCTTCCAA | 1.06
143 | CTGTTCGTT | 0.974
144 | CGATAACAAT | 1.02
145 | TGGCATCGAG | 1
146 | TGGGCAGGTT | 0.996
147 | GTTCAACTCG | 0.982
148 | GCTGACTTTA | 1.02
149 | AATGAGATGC | 0.979
150 | AATCCACTGA | 1.04
151 | ACGGCAATCG | 1.08
152 | TAAGCGTACT | 1.09
153 | TGTTTTGGAT | 0.983
154 | GCACTGTCAG | 0.999

— the supplement of paper PMC10126150
